This is one part of the list. Many values rest on one well or one pass, so single values are uncertain.
tested on: Candida albicans DPL-15; test: growth (OD600) after compound treatment (apparently relative to screen median) (relative growth (fraction; screen median 1.02)); DPL-15 is a caspofungin-resistant clinical isolate; higher = more fungal growth (less antifungal activity); conditions: 25 µM; RPMI 1640; 48 h; 30 °C

SMILES	growth
Cc1cc2c(nc1C)CCCN2S(=O)(=O)c1ccccc1	0.891
CC(=O)OC[C@H]1O[C@H](c2ccc(Cl)cc2)C=C[C@H]1OC(C)=O	0.934
COc1ccc(N2C(=O)c3[nH]nc(CC(C)C)c3C2c2ccncn2)cc1 (centres undefined)	1.19
CC(C)c1cc(Nc2cc(O)cc(O)c2C(=O)N2Cc3cccnc3C2)n(C)n1	1.39
COC(=O)[C@@]12Oc3ccc(-c4ccc5occc(=O)c5c4)c(O)c3C(=O)C1=C(N)C[C@H](C)[C@@H]2O	1.13
CC(C)(C)NS(=O)(=O)NCC(F)(F)F	1.26
C=C(C)[C@@H]1CC[C@]2(COC(C)=O)CC[C@]3(C)[C@H](CC[C@@H]4[C@@]5(C)CC/C(=N/O)C(C)(C)[C@@H]5CC[C@]43C)[C@@H]12	1.48
CC(C)(C)[Si](C)(C)OCC1=C(Br)C2(OCCCO2)[C@@H]2O[C@]2(CO)[C@@H]1O	0.918
COC(=O)C1=C(C)N(Cc2cccc(C(F)(F)F)c2)C(NCCCOC(C)C)=NC1c1ccc(Cl)cc1 (centres undefined)	0.658
Cc1noc(C)c1S(=O)(=O)N1CCCc2nc(-c3ccccc3)ccc21	0.888
CC(C)C1=NCC(C)(C)NC2=C1C(c1cccc(C(F)(F)F)c1)N(Cc1ccccc1)C2=O (centres undefined)	1.05
O[C@@H]1C2(O)c3ccccc3O[C@]1(c1ccccc1)[C@@H](/C=C/c1ccccc1)[C@@H]2c1ccccc1	0.929
COc1cc2c(cc1OC)[C@@]1(c3ccccc3)CCCC[C@H]1[C@@H]2NC(=O)C(F)(F)F	1.05
COC(=O)C/C=C/[C@@H](C)[C@H](O)c1ccccc1Br	0.973
CCc1cc2c(nc1CC)CCCN2S(=O)(=O)c1ccc(C)cc1	0.876
Cc1ccc(S(=O)(=O)Oc2c(CC34CCCCC3=Nc3ccccc34)occc2=O)cc1 (centres undefined)	1.17
CC(=O)C1=C(C)NC(=O)NC1c1ccc(C)cc1 (centres undefined)	1.19
O=C1N[C@H](c2ccccc2)COCc2cc([nH]n2)-c2cccc(n2)C(=O)N2C[C@H](O)C[C@@H]12	1.07
C=CC[C@]12C[C@@]3(O[C@H](C4CCNCC4)N=C3C[C@H](c3ccc(OC)cc3)[C@H]1C)N(Cc1ccncc1)C2=O	0.884
COc1cc2c(cc1OC)[C@@]1(C)C=CC(=O)N1CC2	0.975
CC(C)C1=C[C@H]2[C@H]3C(=O)C(c4ccc(O)cc4)=C[C@@]3(c3ccc(O)cc3)[C@@H]1C(=O)[C@]2(C)O	0.984
CC(C)Cc1n[nH]c2c1C(c1ccc(F)cc1)N(c1cccnc1)C2=O (centres undefined)	1.14
COC(=O)C1=C(C)N(Cc2ccccc2F)C(=S)NC1c1cccc(Br)c1 (centres undefined)	0.965
COc1cc(O)ccc1C(=O)/C=C/c1ccc(O)cc1	1.23
CCc1cc2c(nc1CC)CCCN2S(=O)(=O)c1ccc(C#N)cc1	0.951
COCCN1C(=O)N[C@H](c2cccc(C(F)(F)F)c2)C(C(=O)OC)=C1C	0.927
COc1ccc(-c2cnn3c(N)c(-c4ccc(Cl)cc4)cnc23)cc1	1.2

SMILES	growth
CC#CCOc1coc2ccccc2c1=O	1.07
COc1cccc2c(=O)c3cccc(C(=O)Nc4ccc(CCN5CCc6ccccc6C5)cc4)c3[nH]c12	1.25
COc1cc([C@@H]2[C@@H](C(=O)NCc3ccccc3)[C@@H](C(=O)NCc3ccccc3)[C@@H]2c2cc(OC)c(OC)c(OC)c2)cc(OC)c1OC	1.04
COC(=O)C/C=C/[C@H](C)[C@@H](NC(=O)[C@@H]1CCCN1C(=O)OC(C)(C)C)c1ccccc1	1.02
COc1ccc([C@@]23Oc4cc(OC)cc(OC)c4[C@]2(O)[C@H](O)[C@H](C(=O)c2cc(C)c(C)o2)[C@H]3c2ccccc2)cc1	1.2
COc1ccc(OC[C@H]2C=C(C)C[C@@]3(O2)C(=O)Nc2ccccc23)cc1	0.91
COc1ccc2c(c1)[C@@H](NS(=O)(=O)c1c(C(C)C)cc(C(C)C)cc1C(C)C)[C@H](C)[C@H]2c1ccccc1	1.21
C=CCOC(=O)C1(C(NC(=O)OC)c2ccccc2)C(=O)Cc2ccccc21 (centres undefined)	0.977
COc1ccc(-c2cnc3c(-c4ccc(F)cc4)cnn3c2)cc1	1.05
CCCCCOS(=O)(=O)NCC	1.18
COC(=O)C1=C(C(=O)OC)C2N(Cc3ccccc3)c3ccccc3C23CCNC3=N1 (centres undefined)	0.939
COc1ccc2c(c1)[C@@H](NS(=O)(=O)c1ccc(C(F)(F)F)cc1)[C@H](C)[C@H]2c1ccccc1	1.09
COc1ccc2c(c1)[C@H](c1ccccc1)[C@@H]1Cc3ccccc3[C@@H]1O2	0.92
CC(C)Cc1n[nH]c2c1C(c1ccc(F)cc1)NC2=O (centres undefined)	1.09
COC(=O)C1=C(C)N(Cc2ccc(Cl)cc2)C(=S)NC1c1ccc(Cl)cc1 (centres undefined)	0.912
CC(=O)C1=C(C)N(Cc2ccc(Cl)cc2)C(=S)NC1c1cccc(Br)c1 (centres undefined)	0.939
Cc1ccc(C2C3=C(NCCN=C3c3ccccc3)C(=O)N2Cc2ccccc2)cc1 (centres undefined)	1.04
COC(=O)C1=C(C)N(Cc2ccccc2)C(=O)NC1c1ccccc1 (centres undefined)	1.11
COc1ccc(Cn2nc(C(C)C)cc2Nc2cc(O)cc(O)c2C(=O)N2Cc3cccnc3C2)cc1	1.12
[N-]=[N+]=NC1c2ccccc2-c2c1c1c3c(ccc4c3c2OCO4)OCO1 (centres undefined)	0.957
CC1=C[C@]23O[C@H]2[C@H](O)C[C@@H](C)[C@]3(O)[C@@H]2CCC3(OCCO3)[C@@]2(O[Si](C)(C)C)C1	1.07
Cc1ccc2c(c1)C1(Cc3occc(=O)c3OS(C)(=O)=O)CCCCC1=N2 (centres undefined)	1.18
CCCC[C@]12Cc3cc(OC)c(OC)cc3[C@H](O1)c1c(c3ccccc3n(C)c1=O)O2	0.886
COC(=O)N[C@@H]1[C@@H](C)[C@H](OC)[C@]23C=CC=C[C@H]2[C@]13CCN1CCOCC1	1.36
CC1CC(c2ccccc2)=CC1=O (centres undefined)	1.01
CC(=O)C1=C2C=CCCN2C(=O)NC1c1cc(OC(F)(F)F)ccc1C (centres undefined)	0.945
CC1=NCCNC2=C1C(c1ccc(F)cc1)N(c1ccccc1)C2=O (centres undefined)	1

SMILES	growth
COC(=O)C1=C(C(=O)OC)[C@@H]2N(CC=C(C)C)c3ccccc3[C@@]23CCC(=O)N(CCc2ccccn2)C3=N1	0.911
COc1ccc(CO/N=C2/CCCC/C=C/COC(=O)c3c(O)cc(O)cc3C2)cc1	1.24
C=CCN1C(=O)C2=C(C(C(C)C)=NCCN2C)C1c1cccc(C(F)(F)F)c1 (centres undefined)	1.01
COC(=O)C1=C[C@@H]([C@@H](C)[C@H](OC)c2ccccc2Br)[C@@H]2OCCC[C@H]12	1.15
CC1=NCCNC2=C1C(c1ccc3c(c1)OCO3)N(c1ccccc1)C2=O (centres undefined)	1.06
COc1ccc(Cn2nc(-c3ccoc3)cc2Nc2cc(O)cc(O)c2C(=O)N2Cc3cn[nH]c3C2)cc1	0.96
COc1ccc(N2C(=O)C3=C(C(C)=NCCN3)C2c2ccc3c(c2)OCO3)cc1 (centres undefined)	1
COc1cc(N2C(=O)c3[nH]nc(CC(C)C)c3C2c2ccc(F)cc2)ccc1F (centres undefined)	1.06
CCNC(=O)c1cc(-c2c(Br)cc(OC)cc2OC)on1	1.04
CCCCN(C(=O)OC(C)(C)C)S(=O)(=O)NC(C)(C)C	1.25
CC(C)(C)c1ccc(C#C[C@@H]2C=C[C@H](OC(N)=O)[C@@H](COC(N)=O)O2)cc1	1.09
CCO[C@@H]1CCN(C(=O)c2c(O)cc(O)cc2Nc2c(C)nn(C)c2C)C1	1.2
COC(=O)c1c(-c2ccccc2Br)c2c(c3c1[nH]c1ccccc13)C(=O)N(C)C2	1.07
CCCCS(=O)(=O)N1CCCc2nc(C)c(C)cc21	1.03
COCOc1cc(OC)cc(O)c1C(=O)/C=C/c1ccsc1	1.01
COC(=O)C/C=C/[C@H](C)[C@@H](/C=C/c1ccccc1)NC(=O)C(F)(F)F	0.963
COc1ccc(C[C@@H](C)[C@@H](C)Cc2ccc(OC)c(OC)c2)cc1OC	1.02
C=CC[C@H]1CC2=C(OC1(C)C)C(C(=O)c1ccccc1)=C(O)C(CC=C)(CC=C)C2=O	0.716
CC(C)(C)c1ccc2c(c1)C1(Cc3occc(=O)c3OS(C)(=O)=O)CCCCC1=N2 (centres undefined)	1.04
CC(=O)Nc1ccc([C@@H]2C=C[C@@H](OC(C)=O)[C@@H](COC(C)=O)O2)cc1	0.961
COc1ccc(C(=O)COC(=O)c2c(N)cccc2F)cc1	1.1
O=C1NC(c2ccccc2)c2c1nn(-c1ccc(OC(F)(F)F)cc1)c2-c1ccccc1 (centres undefined)	1.03
COc1ccccc1N1C(=O)c2[nH]nc(CC(C)C)c2C1c1cccc(C(F)(F)F)c1 (centres undefined)	1.09
COc1cc2c(c(OC)c1)COC(=O)C2	0.968
CC1=C[C@H]2c3c(c(O)c(O)c4oc5ccc(C(F)(F)F)cc5c(=O)c34)[C@H](c3cc(O)c(O)c4oc5ccc(C(F)(F)F)cc5c(=O)c34)[C@H]2C(C)(C)C1	active: 0.0939
